For 42 sequences, binding signal results are on record in article PMC7819943, “Rice protein-binding microarrays: a tool to detect cis-acting elements near promoter regions in rice”.

The other results are listed elsewhere or left out.

For this assay, the target named is T1, OsWOX13 (Oryza sativa, UniProt Q5QMM3 1-267).
T1 sequence: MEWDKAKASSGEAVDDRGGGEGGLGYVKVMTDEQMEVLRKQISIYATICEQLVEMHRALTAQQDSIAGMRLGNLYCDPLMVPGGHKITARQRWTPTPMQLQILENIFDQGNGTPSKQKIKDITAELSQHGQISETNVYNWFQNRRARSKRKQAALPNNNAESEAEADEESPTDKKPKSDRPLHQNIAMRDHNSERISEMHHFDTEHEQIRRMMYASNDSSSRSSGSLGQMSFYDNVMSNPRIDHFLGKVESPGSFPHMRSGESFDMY
As to the kind of experiment: protein-binding microarray (RPBM); PBS, 2% BSA, 51.3 ng/ul salmon testes DNA, 50 uM zinc acetate, 200 nM TF, 25 C, 1 h; high values mean tight binding. The settings on record: protein: recombinant; tags: N-terminal polyhistidine and DsRed monomer fusion (pET32a); label: CyDye5-dUTP incorporated in the synthesized complementary strand; 3' TTTTT single-stranded linker to array surface; dsDNA, one strand shown. A digest of the protocol:
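Transcription factors, each fused N-terminally to a polyhistidine tag and DsRed, were expressed in E. coli BL21-CodonPlus and purified on Ni–NTA. A custom Agilent array was made double-stranded by primer extension with Cy5-dUTP and blocked with 2% BSA. It was incubated with 200 nM protein in PBS, 2% BSA, salmon testes DNA and 50 µM zinc acetate at 25 °C for 1 h, then washed. The binding signal is per-feature fluorescence intensity (arbitrary units) read on an Axon 4000B scanner.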
In the case of “CATGATGCAAATTAATTAGTACTTGTCAACTCCATTGGATCGGAGTCACCTAGTGCAG”, the binding signal was 48600 fluorescence intensity (a.u.).

For the sequence “ACATATGAACAGGCAATTGATTTTGGATCCAGGGTAAAAGCGGAGTCACCTAGTGCAG”, the binding signal was 3260 fluorescence intensity (a.u.). In the case of “CTCTTGATAGACACATTCACGGTCCATCGCACTTGAAGCACGGAGTCACCTAGTGCAG”, the binding signal was 25000 fluorescence intensity (a.u.).

Take “CTAGATCATGTGTAATAATTTACTACGATGAACCTTGTTGCGGAGTCACCTAGTGCAG”: the binding signal is 4320 fluorescence intensity (a.u.). As for “ATATTAAATTGTCAGTTTGTGTATCTCGGCTGATTTCTGTCGGAGTCACCTAGTGCAG”, the binding signal is 24700 fluorescence intensity (a.u.).

Consider “TAATCAATTGATATTTATAGAAGGTTTCTTTGAACTGCAACGGAGTCACCTAGTGCAG”, for which the binding signal is 6600 fluorescence intensity (a.u.). Regarding “ACATTCATTTCCGGTTGATTTGGCAGAAGAACTAACTTCTCGGAGTCACCTAGTGCAG”, the binding signal is 4660 fluorescence intensity (a.u.). As for “TCAGAAATTCAAATCTGTCAAGCAATAATGCAAGGAGACACGGAGTCACCTAGTGCAG”, the binding signal is 4470 fluorescence intensity (a.u.). Consider “ATCAAATAATTATGAACAGATGGAAATGGACAATTTGTAGCGGAGTCACCTAGTGCAG”, for which the binding signal is 19500 fluorescence intensity (a.u.). For “TGATGACGAAATTAACAAGACTAACCGATCCATCAGAGACCGGAGTCACCTAGTGCAG”, the binding signal is 11400 fluorescence intensity (a.u.).

As for “ATGCGTGATGACTGATGAGTGACAACAACTAGTTGCCCTCCGGAGTCACCTAGTGCAG”, the binding signal was 21100 fluorescence intensity (a.u.). Then “CACTAATTCCATTTCGCCGTTACGCCAAACTTGGACAAACCGGAGTCACCTAGTGCAG”, with 5170 fluorescence intensity (a.u.); and “TTAAAATAATTGACAAGATAGATTAATATTTGGTATATCACGGAGTCACCTAGTGCAG”, with 26400 fluorescence intensity (a.u.). For the sequence “ACCTCCTTGCAAAATTGCAAATTTGCAATACATCACTCAGCGGAGTCACCTAGTGCAG”, the binding signal is 4530 fluorescence intensity (a.u.). Then “TTAAGCATAATTAATCCATCATTAGCAAATGTTTACTGTACGGAGTCACCTAGTGCAG”, with 12100 fluorescence intensity (a.u.). With “TTGCACTGATTTTATAAGTTGAGGGATGTCTTGTATCCGGCGGAGTCACCTAGTGCAG”, the binding signal was 4490 fluorescence intensity (a.u.).

Consider “AGCCTGACAACTAAATTGGGCTGGACTGGGCTGTAGGCGTCGGAGTCACCTAGTGCAG”, for which the binding signal was 4470 fluorescence intensity (a.u.).

Consider “TTGATTAATAATAGTTATATCATGTTGGCTCACTCGATCGCGGAGTCACCTAGTGCAG”, for which the binding signal was 33700 fluorescence intensity (a.u.).

With “CTAATTATACTTCCACGTCAATTAAGGATCTAATTATACTCGGAGTCACCTAGTGCAG”, the binding signal was 9060 fluorescence intensity (a.u.).

As to “GTCCGACGACATAATTGATTTTCTTGTTGTTCAGCTTGATCGGAGTCACCTAGTGCAG”, the binding signal is 37800 fluorescence intensity (a.u.).

In the case of “AAAGATAGTCAAATTTAGAGTAGTTTGATTTTGACCAAAGCGGAGTCACCTAGTGCAG”, the binding signal was 5260 fluorescence intensity (a.u.). As for “GATTAGGTTAATTGAGATCTGCCTTGCTCTGCTCTGCTCGCGGAGTCACCTAGTGCAG”, the binding signal is 21500 fluorescence intensity (a.u.).

“AGAGTTGTAATTAACCTTTTCAGGTTGTATTGACTGCAAGCGGAGTCACCTAGTGCAG”: the binding signal is 3760 fluorescence intensity (a.u.). With “TCCTGACTGATAATACTTACCATCTTATTTATGACTTTGACGGAGTCACCTAGTGCAG”, the binding signal is 23400 fluorescence intensity (a.u.).

As to “TGAAATTTAACTTAATCCAATTGCATTTTGTAAGCAATTCCGGAGTCACCTAGTGCAG”, the binding signal is 9680 fluorescence intensity (a.u.). As for “CTATTGAGACTAATTAATCTATGATTAGCCTGTGTGATGCCGGAGTCACCTAGTGCAG”, the binding signal is 31000 fluorescence intensity (a.u.). For “ACACCCTTTAATTTATATTCATTGTAATCTAACGGTGTAGCGGAGTCACCTAGTGCAG”, the binding signal is 11000 fluorescence intensity (a.u.).

For the sequence “GTCATAATTTTAAAAGTTTAGGGGTTGATTCGGTCCAAATCGGAGTCACCTAGTGCAG”, the binding signal is 8310 fluorescence intensity (a.u.). Consider “CTATACAACAAATCATTAATTAGGCTCAAAAGAAAGAAAGCGGAGTCACCTAGTGCAG”, for which the binding signal is 11100 fluorescence intensity (a.u.). Under “AACTTTTCCATCACATCGTTCTAATTTCTTCAAACTTCCACGGAGTCACCTAGTGCAG” stands 3690 fluorescence intensity (a.u.). Then “CTTGTCAAATTAACTCCCGCACATACAGCGTGGCACGAGGCGGAGTCACCTAGTGCAG”, with 4140 fluorescence intensity (a.u.).

Turning to “CTGATTTATGTGCTCTGAAATTGTGAACCACCTGAAGTAGCGGAGTCACCTAGTGCAG”, the binding signal was 9290 fluorescence intensity (a.u.). For the sequence “GTTGACAGACGTGTATTCCTTAATTTGCAGCATGCTTACACGGAGTCACCTAGTGCAG”, the binding signal was 40800 fluorescence intensity (a.u.). Take “AAGTAATTATAATCAGCCTTTGAGCCTTCTCCCGTGAGTGCGGAGTCACCTAGTGCAG”: the binding signal is 43200 fluorescence intensity (a.u.). Then “ATGATTGGCTTGATACAGAAATGGAAGATGCTCCACAAAGCGGAGTCACCTAGTGCAG”, with 37400 fluorescence intensity (a.u.); and “TTTGATGTTAGATTTAATAACACTATGTTGATGTGGTGCACGGAGTCACCTAGTGCAG”, with 6660 fluorescence intensity (a.u.). In the case of “ATTTCGGTTATTAATTGTGTATCGTACCAGGAATTATTTGCGGAGTCACCTAGTGCAG”, the binding signal was 5400 fluorescence intensity (a.u.). Consider “AATTTAAACACGTAATTAAGCTAAGCGAGTTGCAGCAAAACGGAGTCACCTAGTGCAG”, for which the binding signal is 5050 fluorescence intensity (a.u.). Under “AATGACTGCTCCATTCCTGATCTGAATCAGTGGTTCCAACCGGAGTCACCTAGTGCAG” stands 10900 fluorescence intensity (a.u.). On to “CCTACAATTAAGGACGAAATGACACGTGGAAATAGACGTGCGGAGTCACCTAGTGCAG”, for which the binding signal was 5710 fluorescence intensity (a.u.). As to “AATCTGTAATTTTGTGATAACTTCAATATTAAATATATAGCGGAGTCACCTAGTGCAG”, the binding signal was 5930 fluorescence intensity (a.u.). Under “ATGTGATTAAAGGCCTCATCGTTTCGCTTATTCGTGAAATCGGAGTCACCTAGTGCAG” stands 14200 fluorescence intensity (a.u.).
